“And” between values parts separate entries of the source, which are not always exact repeats. Identical values can stand only once.

Experiment [1] deals with T1, murine GPC3-his protein (murine, UniProt Q8CFZ4 25-558, limits assumed).
T1 construct: Bought protein; also called mouse GPC3 protein; murine GPC3 protein; not shown: His tag
The experiment can be described thus: ELISA, murine GPC3-his coated; antibody 0.11 nM.

The target in experiment [2] is T1, murine GPC3-his protein. The experiment in a line: ELISA, murine GPC3-his coated; antibody 0.53 nM. Background: In an ELISA, binding on a coated surface is turned into a signal by an enzyme label.
Experiment [3] has as its target T1, murine GPC3-his protein. The experiment can be described thus: ELISA, murine GPC3-his coated; antibody 0.0008 nM.
Experiment [4] deals with T1, murine GPC3-his protein. The experiment in a line: ELISA, murine GPC3-his coated; antibody 0.02 nM.
Experiment [5] deals with T1, murine GPC3-his protein. The experiment in a line: ELISA, murine GPC3-his coated; antibody 66.66 nM.
In experiment [6] the target is T1, murine GPC3-his protein. The experiment can be described thus: ELISA, murine GPC3-his coated; antibody 0.004 nM.
The target in experiment [7] is T1, murine GPC3-his protein. The experiment can be described thus: ELISA, murine GPC3-his coated; antibody 13.33 nM.
In a further experiment the target is T2, GPC3 on HepG2 cells (human, UniProt P51654 25-554).
T2 construct: whole, on cells; also called glypican-3
The experiment can be described thus: FACS on HepG2 cells.

Experiment [8] deals with T1, murine GPC3-his protein. The experiment can be described thus: ELISA, murine GPC3-his coated; antibody 2.67 nM.
Experiment [9] has as its target T3, murine GPC3-his protein (Sino Biological, Cat. No. 50989-M08B) (murine, UniProt Q8CFZ4 25-558).
T3 construct: Bought protein; also called murine GPC3 protein
The experiment in a line: ELISA, coated murine GPC3-His.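 Further: antigen coated on plates at 1 µg/mL, test antibody bound for 2 h at 37 °C, detected with HRP-conjugated secondary antibody and TMB substrate after acid stop.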

The target of experiment [10] is T4, murine GPC3-His protein (murine, UniProt Q8CFZ4 25-558, limits assumed).
T4 construct: bought protein; also called murine GPC3 protein
The experiment can be described thus: SPR, antibody captured on Protein A chip, murine GPC3-His injected. Background: SPR reads the build-up and loss of mass on a sensor chip optically.

Experiment [11] addresses T5, human GPC3-His protein (human, UniProt P51654 25-559).
T5 construct: Bought protein; also called human GPC3 protein; not shown: His tag
The experiment in a line: ELISA, coated human GPC3, antibody 0.1 nM.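 Further: antigen coated on 96-well plates at 1 µg/mL, antibody bound 2 h at 37 °C, detected with HRP-labeled secondary antibody and TMB substrate, acid-stopped.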

The target of experiment [12] is T5, human GPC3-His protein. The experiment can be described thus: ELISA, coated human GPC3, antibody 1 nM.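 Further: antigen coated at 1 µg/mL on 96-well plates, antibody bound for 2 h at 37 °C, detected with HRP-labeled secondary antibody and TMB, absorbance read at 450 nm.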
Experiment [13] deals with T5, human GPC3-His protein. The experiment in a line: ELISA, coated human GPC3, antibody 100 nM.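 Further: antibodies bound to antigen-coated 96-well plates (1 µg/mL), 2 h at 37 °C, detected with HRP-labelled secondary antibody and TMB substrate, absorbance read at 450 nm.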
Experiment [14] deals with T5, human GPC3-His protein. The experiment can be described thus: ELISA, coated human GPC3, antibody 0.0001 nM.
The target of experiment [15] is T5, human GPC3-His protein. The experiment in a line: ELISA, coated human GPC3, antibody 10 nM.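 Further: plate coated with antigen at 1 µg/mL, antibodies bound 2 h at 37 °C, detected via HRP-conjugated secondary antibody and TMB substrate, absorbance read after acid stop.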
The target in experiment [16] is T5, human GPC3-His protein. The experiment can be described thus: ELISA, coated human GPC3, antibody 0.01 nM.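 Further: Plate-bound antigen coated at 1 µg/mL, antibody incubated 2 h at 37 °C, binding detected by HRP-conjugated secondary antibody with TMB substrate, read as absorbance at 450 nm.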
Experiment [17] addresses T6, GPC3 endogenously expressed on HepG2 cells (UniProt P51654 25-554).
T6 construct: whole, on cells
The experiment in a line: FACS on HepG2 cells.

The target of experiment [18] is T5, human GPC3-His protein. The experiment can be described thus: ELISA, coated human GPC3, antibody 0.001 nM.
Experiment [19] concerns the target T7, human GPC3 on CHO-K1-human GPC3 cells (clone CHOK1-hGPC3.2B5) (human, UniProt P51654 25-554).
T7 construct: whole, on cells; Stably transfected CHO-K1 clone 2B5
The experiment in a line: FACS on CHOK1-hGPC3.2B5 cells.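 Further: flow cytometry binding of chimeric antibodies to the cells, read out as mean fluorescence intensity, with the half-maximal concentration derived by curve fitting.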

Experiment [20] has as its target T8, human GPC3-His protein (human, UniProt P51654 25-559).
T8 construct: also called human GPC3 protein; not shown: His tag
The experiment can be described thus: SPR, antibody captured on Protein A chip, human GPC3-His analyte.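 Further: measured at 25 °C flow cell, human GPC3-His injected at five concentrations up to 200 nM, 240 s association, up to 600 s dissociation, double-referenced, fitted to Langmuir 1:1 model.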

Experiment [21] has as its target T9, monkey GPC3-His protein (monkey).
T9 construct: Bought recombinant protein; also called monkey GPC3 protein
The experiment can be described thus: SPR, antibody captured on Protein A chip, monkey GPC3-His analyte.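 Further: run at 25 °C with 240 s association and up to 600 s dissociation, double-referenced, kinetics fitted to a 1:1 Langmuir binding model.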

Experiment [22] addresses T9, monkey GPC3-His protein. The experiment in a line: ELISA, monkey GPC3-His coated.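 Further: Plate-coated antigen at 1 µg/mL, antibody binding 2 h at 37 °C, detected with HRP-labeled secondary antibody and TMB, absorbance at 450 nm.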
Experiment [23] addresses T10, polypeptide GC3pep (human).
T10 construct: also called membrane proximal polypeptide GC3pep
T10 peptide: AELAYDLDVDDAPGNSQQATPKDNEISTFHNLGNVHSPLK
The experiment in a line: ELISA, GC3pep coated, antibody 0.1 nM.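 Further: antibody allowed to bind the coated plate 2 h at 37 °C, then detected via HRP-conjugated secondary antibody and TMB development for 10 min, stopped with HCl.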

The target in experiment [24] is T10, polypeptide GC3pep. The experiment can be described thus: ELISA, GC3pep coated, antibody 0.0001 nM.
In experiment [25] the target is T10, polypeptide GC3pep. The experiment can be described thus: ELISA, GC3pep coated, antibody 0.001 nM.
The target in experiment [26] is T10, polypeptide GC3pep. The experiment in a line: ELISA, GC3pep coated, antibody 1 nM.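 Further: bound antibody detected with an HRP-conjugated secondary antibody and TMB substrate, reaction stopped with HCl, after 2 h binding at 37 °C.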
In experiment [27] the target is T10, polypeptide GC3pep. The experiment can be described thus: ELISA, GC3pep coated, antibody 0.01 nM.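 Further: bound antibody detected with an HRP-conjugated secondary antibody and TMB substrate, color reaction stopped with HCl before reading absorbance.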
Experiment [28] has as its target T10, polypeptide GC3pep. The experiment in a line: ELISA, GC3pep coated, antibody 100 nM.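 Further: detection with an HRP-conjugated secondary antibody and TMB substrate, color reaction stopped with HCl before absorbance reading.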
The target in experiment [29] is T10, polypeptide GC3pep. The experiment can be described thus: ELISA, GC3pep coated, antibody 10 nM.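 Further: antibody bound to the coated peptide for 2 h at 37 °C, detected through an HRP-conjugated secondary antibody with TMB colour development stopped by acid.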

Chain of murine GPC3-His protein (Q8CFZ4 25-558 limits assumed): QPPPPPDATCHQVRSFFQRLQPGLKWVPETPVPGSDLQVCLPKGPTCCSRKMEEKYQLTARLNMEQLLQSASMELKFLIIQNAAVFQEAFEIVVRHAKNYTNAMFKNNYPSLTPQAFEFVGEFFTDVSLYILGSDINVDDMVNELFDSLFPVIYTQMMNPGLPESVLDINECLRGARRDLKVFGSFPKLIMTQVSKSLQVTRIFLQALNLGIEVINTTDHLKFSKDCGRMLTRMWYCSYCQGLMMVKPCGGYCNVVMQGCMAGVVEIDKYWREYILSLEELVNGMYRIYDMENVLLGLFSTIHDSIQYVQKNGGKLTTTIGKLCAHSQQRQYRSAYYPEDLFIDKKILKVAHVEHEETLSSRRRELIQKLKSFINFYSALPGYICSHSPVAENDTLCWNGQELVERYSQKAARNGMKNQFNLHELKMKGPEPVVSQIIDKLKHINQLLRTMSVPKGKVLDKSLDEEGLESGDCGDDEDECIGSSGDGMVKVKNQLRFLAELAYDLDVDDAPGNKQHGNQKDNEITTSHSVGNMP
T1 sequence (Q8CFZ4 25-558 limits assumed): as above

B1: GC33 scFv-hFc (Fc fusion)
scFv: QVQLVQSGAEVKKPGASVKVSCKASGYTFTDYEMHWVRQAPGQGLEWMGALDPKTGDTAYSQKFKGRVTLTADKSTSTAYMELSSLTSEDTAVYYCTRFYSYTYWGQGTLVTVSSGGGGSGGGGSGGGGSDVVMTQSPLSLPVTPGEPASISCRSSQSLVHSNRNTYLHWYLQKPGQSPQLLIYKVSNRFSGVPDRFSGSGSGTDFTLKISRVEAEDVGVYYCSQNTHVPPTFGQGTKLEIK[human IgG1 Fc with C220S (EU numbers) not shown]
For the molecule B1, the OD450 nm with murine GPC3-his protein [1] was found to be 0.059; in the experiment with murine GPC3-his protein [2], 0.051; with murine GPC3-his protein [3], 0.065; with murine GPC3-his protein [4], 0.052; with murine GPC3-his protein [5] it was 0.095; with murine GPC3-his protein [6], 0.059. Besides, the OD450 nm with murine GPC3-his protein [7] came out at 0.078; with murine GPC3-his protein [8], 0.107. Also, the EC50 in the experiment with GPC3 on HepG2 cells is 2.42 nM and 1.36 nM.

B2: T2-23 scFv-hFc (Fc fusion)
scFv: QSALTQPPSASGSPGQSVTISCTGTSSDVGGYNYVSWYQQYPGKAPKLLIYGNSNRPSGVPDRFSGSKSGTSASLAITGLQAEDGADYYCQSYDSSLRVVFGGGTKVTVLGGGGGSGGGGSGGGGSQVQLQESGGGLVQPGRSLRLSCAASGFTFSSYAMHWVRQAPGKGLEWVSAISSSGRSTYYADSVEGRFTISRDNSKNTLYLQMNSLRAEDTAVYYCAKDRRGSHADALNVWGQGTLVTVSS[human IgG1 Fc with changes not shown]
With B2, in experiment [9], the “OD450 at 0.0001 nM antibody” value was 0.05 OD450 nm, the “OD450 at 0.001 nM antibody” value came out at 0.07 OD450 nm, the “OD450 at 0.01 nM antibody” value was 0.16 OD450 nm and the “OD450 at 0.1 nM antibody” value was determined as 0.42 OD450 nm. In addition, in experiment [9], the “OD450 at 1 nM antibody” value was 0.73 OD450 nm, the “OD450 at 10 nM antibody” value is 1.24 OD450 nm and the “OD450 at 100 nM antibody” value stood at 1.34 OD450 nm.

B3: T2-23 scFv-hFc (Fc fusion)
scFv: QSALTQPPSASGSPGQSVTISCTGTSSDVGGYNYVSWYQQYPGKAPKLLIYGNSNRPSGVPDRFSGSKSGTSASLAITGLQAEDGADYYCQSYDSSLRVVFGGGTKVTVLGGGGGSGGGGSGGGGSQVQLQESGGGLVQPGRSLRLSCAASGFTFSSYAMHWVRQAPGKGLEWVSAISSSGRSTYYADSVEGRFTISRDNSKNTLYLQMNSLRAEDTAVYYCAKDRRGSHADALNVWGQGTLVTVSS[human IgG1 Fc with changes not shown]
notes: control antibody, made as scFv-human IgG1 Fc
In the experiment with murine GPC3-His protein [10], B3 registered a Kd of 0.134 nM, an off-rate (koff) of 6.75e-05 s⁻¹ and a kon of 505000 M⁻¹ s⁻¹.

B4: Y035 scFv-hFc (Fc fusion)
scFv: DIVMTQTPLSLPVITGEPASISCRSSQSLVHSNGNTYLQWYLQKPGQSPQLLIYKVSNRFSGVPDRFSGSGSGTDFTLKISRVEAEDVGVYYCSQSIYVPYTFGQGTKLEIKRGGGGSGGGGSGGGGSEVQLVQSGAEVKKPGASVKVSCKASGYTFSDYEMHWVRQAPGQGLEWMGAIHPGSGDTAYNQRFKGRVTITADKSTSTAYMELSSLRSEDTAVYYCARFYSYAYWGQGTLVTVSA[human IgG1 Fc with changes not shown]
notes: Control antibody
With B4, the OD450 nm with human GPC3-His protein [11] worked out at 1.49 OD450; with human GPC3-His protein [12], 2.37 OD450; in the experiment with human GPC3-His protein [13] it was 2.64 OD450; with human GPC3-His protein [14], 0.1 OD450; in the experiment with human GPC3-His protein [15], 2.59 OD450; with human GPC3-His protein [16], 0.34 OD450. In the experiment with human GPC3-His protein [18], this molecule displayed an OD450 nm of 0.12 OD450. The EC50 in experiment [17] is 3.93 nM and 2.25 nM and 6.36 nM; in experiment [19] it was 2.06 nM and 1.72 nM and 3.22 nM.

B5: Y035 scFv-hFc (Fc fusion)
chain: DIVMTQTPLSLPVITGEPASISCRSSQSLVHSNGNTYLQWYLQKPGQSPQLLIYKVSNRFSGVPDRFSGSGSGTDFTLKISRVEAEDVGVYYCSQSIYVPYTFGQGTKLEIKRGGGGSGGGGSGGGGSEVQLVQSGAEVKKPGASVKVSCKASGYTFSDYEMHWVRQAPGQGLEWMGAIHPGSGDTAYNQRFKGRVTITADKSTSTAYMELSSLRSEDTAVYYCARFYSYAYWGQGTLVTVSA[human IgG1 Fc with changes not shown]
B5: in the experiment with human GPC3-His protein [20], the Kd turned out to be 2.36 nM, the koff came to 0.000365 s⁻¹ and the kon turned out to be 155000 M⁻¹ s⁻¹. In the experiment with monkey GPC3-His protein [21], the affinity, expressed as Kd, was 1.75 nM; the koff amounted to 0.000365 s⁻¹; the kon is 209000 M⁻¹ s⁻¹. In the experiment with monkey GPC3-His protein [22], the “OD450 at 0.0001 nM” value was determined as 0.05 OD450, the “OD450 at 0.001 nM” value was found to be 0.08 OD450, the “OD450 at 0.01 nM” value stood at 0.35 OD450 and the “OD450 at 0.1 nM” value is 1.79 OD450. For the same molecule, in the experiment with monkey GPC3-His protein [22], the “OD450 at 1 nM” value is 2.32 OD450, the “OD450 at 10 nM” value is 2.6 OD450 and the “OD450 at 100 nM” value amounted to 2.64 OD450.

B6: Y035 scFv-hFc (Fc fusion)
scFv: DIVMTQTPLSLPVITGEPASISCRSSQSLVHSNGNTYLQWYLQKPGQSPQLLIYKVSNRFSGVPDRFSGSGSGTDFTLKISRVEAEDVGVYYCSQSIYVPYTFGQGTKLEIKRGGGGSGGGGSGGGGSEVQLVQSGAEVKKPGASVKVSCKASGYTFSDYEMHWVRQAPGQGLEWMGAIHPGSGDTAYNQRFKGRVTITADKSTSTAYMELSSLRSEDTAVYYCARFYSYAYWGQGTLVTVSA[human IgG1 Fc with changes not shown]
notes: as for B3
Turning to B6, the OD450 nm came to 0.94 OD450 nm in the experiment with polypeptide GC3pep [23]; 0.05 OD450 nm with polypeptide GC3pep [24]; 0.05 OD450 nm in the experiment with polypeptide GC3pep [25]; 2.2 OD450 nm with polypeptide GC3pep [26]; 0.17 OD450 nm in the experiment with polypeptide GC3pep [27]; 2.7 OD450 nm in the experiment with polypeptide GC3pep [28]. The OD450 nm with polypeptide GC3pep [29] is 2.5 OD450 nm.

B7: Y035 scFv-hFc (Fc fusion)
scFv: DIVMTQTPLSLPVITGEPASISCRSSQSLVHSNGNTYLQWYLQKPGQSPQLLIYKVSNRFSGVPDRFSGSGSGTDFTLKISRVEAEDVGVYYCSQSIYVPYTFGQGTKLEIKRGGGGSGGGGSGGGGSEVQLVQSGAEVKKPGASVKVSCKASGYTFSDYEMHWVRQAPGQGLEWMGAIHPGSGDTAYNQRFKGRVTITADKSTSTAYMELSSLRSEDTAVYYCARFYSYAYWGQGTLVTVSA[human IgG1 Fc with changes not shown]
B7: in experiment [9], the “OD450 at 0.0001 nM antibody” value stood at 0.05 OD450 nm, the “OD450 at 0.001 nM antibody” value came to 0.05 OD450 nm, the “OD450 at 0.01 nM antibody” value turned out to be 0.05 OD450 nm and the “OD450 at 0.1 nM antibody” value amounted to 0.05 OD450 nm. Further, in [9], the “OD450 at 1 nM antibody” value is 0.05 OD450 nm, the “OD450 at 10 nM antibody” value was 0.05 OD450 nm and the “OD450 at 100 nM antibody” value came out at 0.08 OD450 nm.

In general, EC50 refers to the concentration needed to bring the measured effect to its halfway point. One may read the Kd as a measure of binding affinity in units of concentration. As usually defined, the koff is a measure of how fast the partners let go of each other. Broadly, the kon is the second-order rate constant of association.

Values taken from US20260116991A1 (HAINAN SIMCERE ZAIMING PHARMACEUTICAL, published 2026).
